We go through 40 compounds from the antibiotic and cytotoxicity screens of Wong et al. (2023).

Some of the results follow.

The test system of this experiment is S. aureus RN4220. The experiment in a line: growth inhibition call (relative growth <= 0.2). The following applies: 50 µM.
For the compound `C[C@@H]1CCCCO[C@H](CN(C)Cc2ccc(C(F)(F)F)cc2)[C@@H](C)CN([C@@H](C)CO)C(=O)c2cc(NC(=O)Nc3ccc(F)cc3)ccc2O1`, the growth inhibition call is “inactive”.

For `C[C@@H]1CN([C@H](C)CO)C(=O)c2cccc(NC(=O)C3CCOCC3)c2O[C@@H]1CN(C)Cc1ccc(C(=O)O)cc1`, the growth inhibition call is “inactive”.

Consider `C[C@H](CO)N1C[C@H](C)[C@H](CN(C)C(=O)Nc2ccc(C(F)(F)F)cc2)Oc2c(NC(=O)C3CCCCC3)cccc2C1=O`, for which the growth inhibition call is “inactive”.

Turning to `C[C@H](CO)N1C[C@H](C)[C@H](CN(C)Cc2cncnc2)Oc2cc(C3=CCCCC3)ccc2S1(=O)=O`, the growth inhibition call was “inactive”.

On to `C[C@H]1CN([C@@H](C)CO)C(=O)c2cc(NS(=O)(=O)c3ccccc3)ccc2O[C@@H]1CN(C)Cc1ccc(Oc2ccccc2)cc1`, for which the growth inhibition call is “inactive”.

Regarding `C[C@@H]1CN([C@H](C)CO)C(=O)c2cc(NC(=O)c3ccccc3)ccc2O[C@@H](C)CCCCO[C@@H]1CN(C)S(=O)(=O)c1ccc(F)cc1`, the growth inhibition call is “inactive”.

Take `CO[C@@H](CN(C)C(=O)c1ccc2c(c1)OCO2)[C@H](C)CN([C@@H](C)CO)S(=O)(=O)c1ccc(C)cc1`: the growth inhibition call was “inactive”.

As for `C[C@@H]1CCCCO[C@@H](CN(C)S(=O)(=O)c2ccc(F)cc2)[C@H](C)CN([C@@H](C)CO)C(=O)c2cc(NC(=O)CCC(F)(F)F)ccc2O1`, the growth inhibition call was “inactive”.

On to `Cc1noc(C)c1NC(=O)N(C)C[C@@H]1OCCCC[C@@H](C)Oc2ccc(NC(=O)c3ccccc3)cc2C(=O)N([C@H](C)CO)C[C@@H]1C`, for which the growth inhibition call was “inactive”.

Take `C[C@@H]1CN([C@@H](C)CO)C(=O)c2cccc(NC(=O)Nc3ccc(F)cc3)c2O[C@H]1CN(C)S(=O)(=O)c1cn(C)cn1`: the growth inhibition call was “inactive”.

Take `C/C=C/c1cccc(-c2nc(C(=O)NCc3ccc(OC)cc3)cc3c2[C@@H](CCO)N([S@@](=O)C(C)(C)C)C3)c1`: the growth inhibition call is “inactive”.

Take `COc1ccccc1CN1C(=O)c2ccccc2[C@](Cc2ccccc2I)(C(=O)NC2CC2)[C@@H]1c1ccc(CO)cc1`: the growth inhibition call was “inactive”.

`CO[C@H]1CN(C)C(=O)c2ccc(NS(=O)(=O)c3ccccc3C)cc2OC[C@@H](C)N(S(C)(=O)=O)C[C@@H]1C`: the growth inhibition call was “inactive”.

Consider `O=c1[nH]cccc1F`, for which the growth inhibition call is “inactive”.

`CC1(C)OC2CC3C4CCC5=CC(=O)C=CC5(C)C4C(O)CC3(C)C2(C(=O)CO)O1` (stereo not given): the growth inhibition call was “inactive”.

For `CCOC(=O)[C@H]1CCCCN1`, the growth inhibition call was “inactive”.

Consider `CCCC(=O)Nc1ccc2c(c1)C(=O)N(C)C[C@@H](OC)[C@H](C)CN(Cc1ccc(-c3ccccn3)cc1)[C@@H](C)CO2`, for which the growth inhibition call is “inactive”.

In the case of `O=C1CCCN1C[C@H]1CCCNC1`, the growth inhibition call was “inactive”.

For `C[C@@H]1CN([C@@H](C)CO)C(=O)c2cc(NC(=O)Nc3cccc4ccccc34)ccc2O[C@@H]1CN(C)Cc1ccc(C(=O)O)cc1`, the growth inhibition call was “inactive”.

Turning to `COc1ccc(NC(=O)N(C)C[C@@H]2Oc3c(NC(=O)CCCCCC(=O)Nc4ccccc4N)cccc3C(=O)N([C@H](C)CO)C[C@H]2C)cc1`, the growth inhibition call is “inactive”.

For `Cc1noc(C)c1S(=O)(=O)Nc1ccc2c(c1)CC(=O)N([C@@H](C)CO)C[C@@H](C)[C@@H](CN(C)Cc1ccc(Oc3ccccc3)cc1)O2`, the growth inhibition call is “inactive”.

With `O=C(O)c1cn(C2CC2)c2cc(N3CCNCC3)c(F)cc2c1=O`, the growth inhibition call was “inactive”.

Take `Cc1noc(C)c1S(=O)(=O)Nc1ccc2c(c1)CC(=O)N([C@H](C)CO)C[C@@H](C)[C@H](CN(C)S(C)(=O)=O)O2`: the growth inhibition call was “inactive”.

For the compound `COc1ccc(S(=O)(=O)Nc2ccc3c(c2)C(=O)N([C@H](C)CO)C[C@@H](C)[C@@H](CN(C)S(=O)(=O)c2cn(C)cn2)OCCCC[C@H](C)O3)cc1`, the growth inhibition call was “inactive”.

`C[C@H]1CCCCO[C@H](CN(C)C(=O)CCC(F)(F)F)[C@@H](C)CN([C@@H](C)CO)C(=O)c2cc(NC(=O)c3ccccc3)ccc2O1`: the growth inhibition call was “inactive”.

In the case of `COC(=O)c1cn(CC(N)=O)c2ccccc12`, the growth inhibition call is “inactive”.

In the case of `COc1cc(OC)c(C(C)=O)c(O)c1C`, the growth inhibition call was “inactive”.

As for `CCCN1C(=O)[C@@]2(c3ccc([N+](=O)[O-])cc3)CC(=O)N(CC34CC5CC(CC(C5)C3)C4)[C@@H]2c2ccc(CO)cc21`, the growth inhibition call was “inactive”.

As for `COc1ccc(S(=O)(=O)Nc2ccc3c(c2)CC(=O)N([C@@H](C)CO)C[C@@H](C)[C@@H](CN(C)S(C)(=O)=O)O3)cc1`, the growth inhibition call is “inactive”.

Regarding `COc1ccc(OC)c(S(=O)(=O)NC(=O)[C@@]2(C)CCN2C(=O)Cc2ccc(Cl)cc2Cl)c1`, the growth inhibition call was “inactive”.

On to `CN1C(=O)c2cc(NC(=O)C3CCOCC3)ccc2OC[C@H]2O[C@H](CC(=O)NCCc3ccncc3)CC[C@@H]21`, for which the growth inhibition call was “inactive”.

`C[C@@H]1CCCCO[C@@H](CN(C)C(=O)Nc2cccc3ccccc23)[C@H](C)CN([C@H](C)CO)C(=O)c2cc(NC(=O)C3CCCCC3)ccc2O1`: the growth inhibition call is “inactive”.

As for `COc1cccc(C#Cc2ccc3c(c2)O[C@@H](CN(C)S(=O)(=O)c2ccccc2F)[C@@H](C)CN([C@@H](C)CO)S3(=O)=O)c1`, the growth inhibition call was “inactive”.

Regarding `C[C@@H]1CN([C@@H](C)CO)C(=O)c2cccc(NS(=O)(=O)c3cn(C)cn3)c2O[C@@H]1CN(C)Cc1ccccc1`, the growth inhibition call is “inactive”.

Consider `c1ccc(-c2cc(-c3ccccc3)n(-c3ccccc3)n2)cc1`, for which the growth inhibition call is “inactive”.

For `C=CC[C@@H](CC(=O)NCCO)C(=O)N[C@H](COC(=O)[C@H](CC=C)CC(=O)OC(C)(C)C)Cc1ccccc1`, the growth inhibition call was “inactive”.

Consider `NCc1nnc2n1CCCCC2`, for which the growth inhibition call is “inactive”.

Take `Cc1ccc(S(=O)(=O)N2C[C@H](O)COC[C@H]3O[C@H](CC(=O)NCCN4CCCCC4)CC[C@@H]32)cc1`: the growth inhibition call is “inactive”.

As for `C[C@H](CO)N1C[C@H](C)[C@@H](CN(C)S(=O)(=O)c2cn(C)cn2)OCc2cn(nn2)CCCC1=O`, the growth inhibition call is “inactive”.

In the case of `CC(C)(C)[S@](=O)N1Cc2cc(C(=O)N3CCc4ccccc4C3)nc(-c3cccc(-c4ccncc4)c3)c2[C@@H]1CCO`, the growth inhibition call was “inactive”.
